In US8067379B2, “Sulfur compounds as inhibitors of hepatitis C virus NS3 serine protease” (Schering Corporation, priority 2004, dated 2011):
pKi: −log10 of the molar value.

What follows are compounds tested against Recombinant heterodimeric HCV NS3/NS4A protease (strain 1a) (Hepatitis C virus genotype 1a, UniProt P27958) (assay: Spectrophotometric assay for HCV serine protease inhibitory activity (chromogenic ester substrates)). Conditions: Table 3A; class symbols; read-out: Ki* Range.
Format: biochemical

SMILES	pKi
C=CCNC(=O)C(=O)C(CC1CC1)NC(=O)[C@@H]1[C@@H]2[C@H](CN1C(=O)[C@@H](NC(=O)NC1(CS(=O)(=O)CCC(C)C)CCCCC1)C1(C)CCCCC1)C2(C)C (stereo partly drawn) [Compound 524]	> 7.12
C=CCNC(=O)C(=O)C(CC1CC1)NC(=O)[C@@H]1[C@@H]2[C@H](CN1C(=O)[C@@H](NC(=O)NC1(CS(=O)(=O)CC(F)(F)F)CCCCC1)C1(C)CCCCC1)C2(C)C (stereo partly drawn) [Compound 525]	> 7.12
CNC(=O)C(=O)C(CCC1CC1)NC(=O)[C@@H]1[C@@H]2[C@H](CN1C(=O)[C@@H](NC(=O)NC1(CS(=O)(=O)C(C)(C)C)CCCCC1)C(C)(C)C)C2(C)C (stereo partly drawn) [Compound 526]	> 7.12
CNC(=O)C(=O)C(CCC1CC1)NC(=O)[C@@H]1[C@@H]2[C@H](CN1C(=O)[C@@H](NC(=O)NC1(CS(=O)(=O)C(C)(C)C)CCCCC1)C1(C)CCCCC1)C2(C)C (stereo partly drawn) [Compound 527]	> 7.12
C=CCNC(=O)C(=O)C(CCC1CCC1)NC(=O)[C@@H]1[C@@H]2[C@H](CN1C(=O)[C@@H](NC(=O)NC1(CS(=O)(=O)C(C)(C)C)CCCCC1)C(C)(C)C)C2(C)C (stereo partly drawn) [Compound 528]	> 7.12
CCS(=O)(=O)CC1(NC(=O)N[C@H](C(=O)N2C[C@H]3[C@@H]([C@H]2C(=O)NC(CC2CC2)C(=O)C(=O)NC2CC2)C3(C)C)C2(C)CCCCC2)CCCCC1 (stereo partly drawn) [Compound 529]	> 7.12
C=CCNC(=O)C(=O)C(CC1CC1)NC(=O)[C@@H]1[C@@H]2[C@H](CN1C(=O)[C@@H](NC(=O)NC1(CS(=O)(=O)CC)CCCCC1)C1(C)CCCCC1)C2(C)C (stereo partly drawn) [Compound 530]	> 7.12
CCCC(NC(=O)[C@@H]1[C@@H]2[C@H](CN1C(=O)[C@@H](NC(=O)NC1(CS(=O)(=O)C(C)(C)C)CCCCC1)C1(C)CCCCC1)[C@@]2(C)COCc1ccccc1)C(=O)C(=O)NC1CC1 (stereo partly drawn) [Compound 531]	> 7.12
CC1([C@H](NC(=O)NC2(CS(=O)(=O)C(C)(C)C)CCCCC2)C(=O)N2C[C@H]3[C@@H]([C@H]2C(=O)NC(CC2CC2)C(=O)C(=O)NC2CC2)[C@]3(C)COCc2ccccc2)CCCCC1 (stereo partly drawn) [Compound 532]	> 7.12
CCCC(NC(=O)[C@@H]1[C@@H]2[C@H](CN1C(=O)[C@@H](NC(=O)NC1(CS(=O)(=O)C(C)(C)C)CCCCC1)C1(C)CCCCC1)C2(C)C)C(=O)C(=O)NC(C)COC (stereo partly drawn) [Compound 533]	6.60 to 7.12
CCCC(NC(=O)[C@@H]1[C@@H]2[C@H](CN1C(=O)[C@@H](NC(=O)NC1(CS(=O)(=O)C(C)(C)C)CCCCC1)C1(C)CCCCC1)C2(C)C)C(=O)C(=O)NCCC(C)C (stereo partly drawn) [Compound 534]	< 6.60
C=CCNC(=O)C(=O)C(CCC1CCC1)NC(=O)[C@@H]1[C@@H]2[C@H](CN1C(=O)[C@@H](NC(=O)NC1(CS(=O)(=O)C(C)(C)C)CCCCC1)C1(C)CCCCC1)C2(C)C (stereo partly drawn) [Compound 535]	> 7.12
CCCC(NC(=O)[C@@H]1[C@@H]2[C@H](CN1C(=O)[C@@H](NC(=O)NC1(CS(=O)(=O)C(C)(C)CC)CCCCC1)C1(C)CCCCC1)[C@@]2(C)COCc1ccccc1)C(=O)C(=O)NC1CC1 (stereo partly drawn) [Compound 536]	> 7.12
CCC(C)(C)S(=O)(=O)CC1(NC(=O)N[C@H](C(=O)N2C[C@H]3[C@@H]([C@H]2C(=O)NC(CC2CC2)C(=O)C(=O)NC2CC2)[C@]3(C)COCc2ccccc2)C2(C)CCCCC2)CCCCC1 (stereo partly drawn) [Compound 537]	> 7.12
C=CCNC(=O)C(=O)C(CCC1CC1)NC(=O)[C@@H]1[C@H]2CC(C)(C)O[C@H]2CN1C(=O)[C@@H](NC(=O)NC1(CS(=O)(=O)C(C)(C)C)CCCCC1)C(C)(C)C (stereo partly drawn) [Compound 538]	> 7.12
CCCC(NC(=O)[C@@H]1[C@@H]2[C@H](CN1C(=O)[C@@H](NC(=O)NC1(CS(=O)(=O)CC)CCCCC1)C1(C)CCCCC1)C2(C)C)C(=O)C(=O)NC1CC1 (stereo partly drawn) [Compound 539]	> 7.12
CC1([C@H](NC(=O)NC2(CS(=O)(=O)C(C)(C)C)CCC(F)(F)CC2)C(=O)N2C[C@H]3[C@@H]([C@H]2C(=O)NC(CC2CC2)C(=O)C(=O)NC2CC2)C3(C)C)CCCCC1 (stereo partly drawn) [Compound 540]	> 7.12
CC1([C@H](NC(=O)NC2(CS(=O)(=O)CC(F)(F)F)CCCCC2)C(=O)N2C[C@H]3[C@@H]([C@H]2C(=O)NC(CC2CC2)C(=O)C(=O)NC2CC2)C3(C)C)CCCCC1 (stereo partly drawn) [Compound 541]	> 7.12
CC1([C@H](NC(=O)NC2(CS(=O)(=O)CC(F)(F)F)CCCCC2)C(=O)N2C[C@H]3[C@@H]([C@H]2C(=O)NC(CCC2CC2)C(=O)C(=O)NC2CC2)C3(C)C)CCCCC1 (stereo partly drawn) [Compound 542]	> 7.12
C=CCNC(=O)C(=O)C(CCC1CC1)NC(=O)[C@@H]1[C@@H]2[C@H](CN1C(=O)[C@@H](NC(=O)NC1(CS(=O)(=O)CC(F)(F)F)CCCCC1)C1(C)CCCCC1)C2(C)C (stereo partly drawn) [Compound 543]	> 7.12
C=CCNC(=O)C(=O)C(CC1CC1)NC(=O)[C@@H]1[C@@H]2[C@H](CN1C(=O)[C@@H](NC(=O)NC1(CS(=O)(=O)C3CCCC3)CCCCC1)C1(C)CCCCC1)C2(C)C (stereo partly drawn) [Compound 544]	> 7.12
CC1([C@H](NC(=O)NC2(CS(=O)(=O)C3CCCC3)CCCCC2)C(=O)N2C[C@H]3[C@@H]([C@H]2C(=O)NC(CC2CC2)C(=O)C(=O)NC2CC2)C3(C)C)CCCCC1 (stereo partly drawn) [Compound 545]	> 7.12
CCCC(NC(=O)[C@@H]1[C@@H]2[C@H](CN1C(=O)[C@@H](NC(=O)NC1(CS(=O)(=O)C3CCCC3)CCCCC1)C1(C)CCCCC1)C2(C)C)C(=O)C(=O)NC1CC1 (stereo partly drawn) [Compound 546]	> 7.12

SMILES	pKi
C=CCNC(=O)C(=O)C(CCC1CC1)NC(=O)[C@@H]1[C@H]2CC(C)(C)O[C@H]2CN1C(=O)[C@@H](NC(=O)NC1(CS(=O)(=O)C(C)(C)C)CCCCC1)C1CCCCC1 (stereo partly drawn) [Compound 547]	> 7.12
CCCC(NC(=O)[C@@H]1[C@H]2CC(C)(C)O[C@H]2CN1C(=O)[C@@H](NC(=O)NC1(CS(=O)(=O)C(C)(C)C)CCCCC1)C(C)(C)C)C(=O)C(=O)NC1CC1 (stereo partly drawn) [Compound 548]	6.60 to 7.12
CCCC(NC(=O)[C@@H]1[C@@H]2[C@H](CN1C(=O)[C@@H](NC(=O)NC1(CS(=O)(=O)C(C)(C)CC)CCCCC1)C1(C)CCCCC1)[C@@]2(C)CO)C(=O)C(=O)NC1CC1 (stereo partly drawn) [Compound 549]	> 7.12
CC1([C@H](NC(=O)NC2(CS(=O)(=O)C3CCCCC3)CCCCC2)C(=O)N2C[C@H]3[C@@H]([C@H]2C(=O)NC(CC2CC2)C(=O)C(=O)NC2CC2)C3(C)C)CCCCC1 (stereo partly drawn) [Compound 550]	> 7.12
CCCC(NC(=O)[C@@H]1[C@@H]2[C@H](CN1C(=O)[C@@H](NC(=O)NC1(CS(=O)(=O)C3CCCCC3)CCCCC1)C1(C)CCCCC1)C2(C)C)C(=O)C(=O)NC1CC1 (stereo partly drawn) [Compound 551]	> 7.12
CCCC(NC(=O)[C@@H]1[C@H]2CC(C)(C)O[C@H]2CN1C(=O)[C@@H](NC(=O)NC1(CS(=O)(=O)C(C)(C)C)CCCCC1)C1CCCCC1)C(=O)C(=O)NC1CC1 (stereo partly drawn) [Compound 552]	6.60 to 7.12
C=CCNC(=O)C(=O)C(CCC1CC1)NC(=O)[C@@H]1[C@@H]2[C@H](CN1C(=O)[C@@H](NC(=O)NC1(CS(=O)(=O)C(C)(C)C)CCCCC1)C1CCCCC1)C2(C)C (stereo partly drawn) [Compound 553]	> 7.12
CNC(=O)C(=O)C(CCC1CC1)NC(=O)[C@@H]1[C@@H]2[C@H](CN1C(=O)[C@@H](NC(=O)NC1(CS(=O)(=O)C(C)(C)C)CCCCC1)C1CCCCC1)C2(C)C (stereo partly drawn) [Compound 554]	> 7.12
CC1(C)[C@@H]2[C@@H](C(=O)NC(CCC3CC3)C(=O)C(=O)NC3CC3)N(C(=O)[C@@H](NC(=O)NC3(CS(=O)(=O)C(C)(C)C)CCCCC3)C3CCCCC3)C[C@@H]21 (stereo partly drawn) [Compound 555]	> 7.12
CC1(C)C[C@H]2[C@H](CN(C(=O)[C@@H](NC(=O)NC3(CS(=O)(=O)C(C)(C)C)CCCCC3)C(C)(C)C)[C@@H]2C(=O)NC(CC2CCC2)C(=O)C(=O)NC2CC2)O1 (stereo partly drawn) [Compound 556]	6.60 to 7.12
C=CCNC(=O)C(=O)C(CC1CC1)NC(=O)[C@@H]1[C@@H]2[C@H](CN1C(=O)[C@@H](NC(=O)NC1(CS(=O)(=O)C3CCCCC3)CCCCC1)C1(C)CCCCC1)C2(C)C (stereo partly drawn) [Compound 557]	> 7.12
CC1(C)C[C@H]2[C@H](CN(C(=O)[C@@H](NC(=O)NC3(CS(=O)(=O)C(C)(C)C)CCCCC3)C3CCCCC3)[C@@H]2C(=O)NC(CC2CC2)C(=O)C(=O)NC2CC2)O1 (stereo partly drawn) [Compound 558]	6.60 to 7.12
CC1(C)C[C@H]2[C@H](CN(C(=O)[C@@H](NC(=O)NC3(CS(=O)(=O)C(C)(C)C)CCCCC3)C(C)(C)C)[C@@H]2C(=O)NC(CC2CC2)C(=O)C(=O)NC2CC2)O1 (stereo partly drawn) [Compound 559]	6.60 to 7.12
C=CCNC(=O)C(=O)C(CC1CC1)NC(=O)[C@@H]1[C@H]2CC(C)(C)O[C@H]2CN1C(=O)[C@@H](NC(=O)NC1(CS(=O)(=O)C(C)(C)C)CCCCC1)C1CCCCC1 (stereo partly drawn) [Compound 560]	> 7.12
C=CCNC(=O)C(=O)C(CC1CC1)NC(=O)[C@@H]1[C@H]2CC(C)(C)O[C@H]2CN1C(=O)[C@@H](NC(=O)NC1(CS(=O)(=O)C(C)(C)C)CCCCC1)C(C)(C)C (stereo partly drawn) [Compound 561]	> 7.12
CC1(C)C[C@H]2[C@H](CN(C(=O)[C@@H](NC(=O)NC3(CS(=O)(=O)C(C)(C)C)CCCCC3)C3CCCCC3)[C@@H]2C(=O)NC(CC2CCC2)C(=O)C(=O)NC2CC2)O1 (stereo partly drawn) [Compound 562]	6.60 to 7.12
C=CCNC(=O)C(=O)C(CC1CC1)NC(=O)[C@@H]1[C@@H]2[C@H](CN1C(=O)[C@@H](NC(=O)NC1(CS(=O)(=O)CC(F)(F)F)CCCCC1)C(C)(C)C)C2(C)C (stereo partly drawn) [Compound 563]	> 7.12
C=CCNC(=O)C(=O)C(CCC1CC1)NC(=O)[C@@H]1[C@@H]2[C@H](CN1C(=O)[C@@H](NC(=O)NC1(CS(=O)(=O)CC(F)(F)F)CCCCC1)C(C)(C)C)C2(C)C (stereo partly drawn) [Compound 564]	> 7.12
CC(C)(C)[C@H](NC(=O)NC1(CS(=O)(=O)CC(F)(F)F)CCCCC1)C(=O)N1C[C@H]2[C@@H]([C@H]1C(=O)NC(CC1CC1)C(=O)C(=O)NC1CC1)C2(C)C (stereo partly drawn) [Compound 565]	> 7.12
CC(C)(C)[C@H](NC(=O)NC1(CS(=O)(=O)C(C)(C)C)CCCCC1)C(=O)N1C[C@H]2[C@@H]([C@H]1C(=O)NC(CCC1CC1)C(=O)C(=O)NCCC1CC1)C2(C)C (stereo partly drawn) [Compound 567]	> 7.12
CC1([C@H](NC(=O)NC2(CS(=O)(=O)C(C)(C)C)CCCCC2)C(=O)N2C[C@H]3[C@@H]([C@H]2C(=O)NC(CCC2CC2)C(=O)C(=O)NCCC2CC2)C3(C)C)CCCCC1 (stereo partly drawn) [Compound 568]	> 7.12
CC1(C)[C@@H]2[C@@H](C(=O)NC(CCC3CC3)C(=O)C(=O)NCCC3CC3)N(C(=O)[C@@H](NC(=O)NC3(CS(=O)(=O)C(C)(C)C)CCCCC3)C3CCCCC3)C[C@@H]21 (stereo partly drawn) [Compound 569]	> 7.12
